In this test the target is KRAS G12D (Homo sapiens (Human), UniProt P01116, G12D). Briefly: KRAS G12D LoEnz Biochemical Assay, BODIPY-GDP Exchange TR-FRET (SOS1-mediated nucleotide exchange). The note with it: read-out: KRas (G12D) GDP HTRF IC50. Here is the method:
Example 500: KRAS G12D LoEnz Biochemical Assay, BODIPY-GDP Exchange TR-FRET. Biochemical compound potencies are assessed by evaluating inhibition of SOS1I-mediated nucleotide exchange in KRAS G121D. In this assay, the SOS1-promoted exchange of fluorescently-labeled GDP (BOPIDY-GDP) is monitored by time-resolved fluorescence resonance energy transfer (TR-FRET). Compounds solubilized in DMS0 are dispensed as concentration series into 384-well white assay plates. A preformed complex of biotin-tagged recombinant human KRAS (0.06 nM mutant G1 2D) and 0.06 nM terbium-labeled streptavidin (CisBIO) prepared in 10 uL/well assay buffer (20 mM HEPES, pH 7.5, 50 mM NaCl, 10 mMMMgCl2, 0.0100 Tween-20 and 1 mM dithiothreitol) is added and allowed to incubate for 10-minutes at room temperature. The reaction is initiated with the addition of 5 uL 300 nM recombinant human SOS1 and 300 nM BODIPY-GDP in assay buffer. After a 120-minute incubation, the fluorescence is measured with excitation at 337 nm and emission at 490 and 520 nm. The TR-FRET ratio is determined as the fluorescence at 520 nm divided by the fluorescence at 490 nm multiplied by 10,000. The results are normalized to percent inhibition based on control samples: DMSO (0% inhibition) and control compound at a concentration that inhibits completely (100% inhibition). […]
(In TR-FRET formats the signal depends on donor and acceptor labels being close together.)

This is an account of results in US20240025919A1, “AZA-TETRACYCLIC OXAZEPINE COMPOUNDS AND USES THEREOF” (Genentech, Inc., priority 2022, published 2024).

In general, IC50 refers to the concentration that gives 50% inhibition.

A number of entries come with more than one value. They are shown here; other results are not. An entry can have further records. The records of an entry appear to be repeats (runs, samples, wells or individuals).

Chain of KRAS G12D (P01116-2 other isoform, or with tags, fused parts or gaps G12D): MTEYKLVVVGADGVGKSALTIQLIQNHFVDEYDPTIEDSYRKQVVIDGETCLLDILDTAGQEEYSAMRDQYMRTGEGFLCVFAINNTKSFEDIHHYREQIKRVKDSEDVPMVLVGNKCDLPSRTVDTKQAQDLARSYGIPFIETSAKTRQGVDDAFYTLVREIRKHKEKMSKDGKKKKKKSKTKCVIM

Take `C[C@@H]1Oc2nc(-c3c(Cl)c(N)c(F)c(F)c3C(F)(F)F)c(F)c3nc(OC[C@@]45CCCN4C[C@H](F)C5)nc(c23)N2C[C@H]3CC[C@H](N3)[C@@H]12` (atropisomer, axis not shown; (aS)) [Compound 106, 2-Chloro-5,6-difluoro-3-((5S,5aS,6S,9R)-1-fluoro-12-(((2R,7aS)-2-fluorotetrahydro-1H-pyrrolizin-7a(5H)-yl)methoxy)-5-methyl-5a,6,7,8,9,10-hexahydro-5H-4-oxa-3,10a,11,13,14-pentaaza-6,9-methanonaphtho[1,8-ab]heptalen-2-yl)-4-(trifluoromethyl)aniline]: the IC50 is 1.89 nM and 0.18 nM [lines of one column].
